# PubChem BioAssay AID686979 (National Center for Advancing Translational Sciences (NCATS), 2013)
# The campaign covered roughly 420,000 compounds. About 50,000 (12%) were called active. Inconclusive results, whose numbers are uncertain, are shown with a selection of clear calls. Calls come from the whole dose curve; as a rule, active = well fitted inhibition curve with a large enough effect; inconclusive = small, poorly fitted or top-dose-only effect; inactive = flat fitted curve, though single readings scatter. No potency is given beside an inconclusive call; the fits are too rough.
# Test: qHTS for Inhibitors of human tyrosyl-DNA phosphodiesterase 1 (TDP1): qHTS in cells in presence of CPT; note: nearly all actives have a fitted effect of over 55% in size
# Settings: chicken DT40 Tdp1-/-;hTDP1 cells + 20 nM CPT, ATP luminescence, 48 h; activity change, negative = growth inhibition: at 46.2 µM (top of the series)
# Procedure, shortened: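 Chicken DT40 Tdp1-/- cells complemented with human TDP1, 400 cells/well, exposed to compounds plus 20 nM camptothecin for at least 48 h at 37 C; viability read as ATP content by CellTiter-Glo luminescence.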
# % is set by controls: 0 for no effect and ±100 for the full control effect; potency is the fitted concentration of half-maximal effect; tags give direction and shape of the fitted curve.
SMILES,Potency,"activity change, negative = growth inhibition"
CC(C)(C)OC(=O)NCc1ccc(CNC(=O)c2nc[nH]c2C(=O)N2CCc3ccccc3C2)cc1,"inconclusive [inhibitor, single point]",–
COc1ccccc1C(CNC(=O)C(C)Oc1ccc(Br)cc1)N1CCCC1 (stereo unspecified),inactive,–
CCOC(=O)c1ccc(N2C(=O)CC(C)(CC)CC2=O)cc1,inactive,–
S=c1[nH]nc(C2CCCCC2)n1/N=C/c1ccncc1,"inconclusive [inhibitor, partial curve]",–
Cc1ccc(CC(=O)Nc2nc3c(s2)CCCC3)cc1,"inconclusive [inhibitor, full curve]",–
COc1ccc(S(=O)(=O)N(Cc2nc(-c3ccc(C)cc3)no2)C2CCCCC2)cc1,active: 8.2 µM,–
O=C1CC(c2ccccc2Cl)CC(O)=C1C=NCCCO (stereo unspecified),inactive,–
COc1ccc2cc(CCC(C)=O)ccc2c1,inactive,–
CN1C(=O)/C(=C/c2ccco2)SC1=Nc1ccc(N2CCOCC2)cc1,"inconclusive [inhibitor, single point]",–
COc1ccc(-c2noc(C3CCCN(C(=O)CCc4ccccc4)C3)n2)cc1 (stereo unspecified),active: 17.8 µM,–
Cc1oc(-c2ccccc2F)nc1CN1CCC(C(=O)NCCC2=CCCCC2)CC1,"inconclusive [inhibitor, single point]",–
CCN(CC)C(=O)[C@H]1C[C@H](CC(=O)NCCCn2ccnc2)C(=O)N2CCc3c([nH]c4cc(-c5ccco5)ccc34)[C@]12C,inactive,–
CC(=O)c1cc(-c2ccc(F)cc2)n(CCC(=O)NCc2ccccc2C)c1C,active: 16.4 µM,–
CCC1CCCCN1S(=O)(=O)c1ccccc1 (stereo unspecified),"inconclusive [inhibitor, single point]",–
CSc1ncnc2[nH]ccc12,inactive,–
CN(C)C(=O)CCc1ccc2c3c([nH]c2c1)[C@]1(CCC2CCCC2)[C@@H](C(=O)N2CCOCC2)C[C@H](CC(=O)NCCc2ccccn2)C(=O)N1CC3,inactive,–
C=CCN(CC=C)C(=S)Nc1ccc(OC)c(OC)c1,inactive,–
CCOC(=O)c1nnn(CC(=O)Nc2cccc(Cl)c2C)c1C(=O)OCC,"inconclusive [inhibitor, partial curve, poor fit]",–
O=C(NCC1CCCO1)c1cccc(S(=O)(=O)N2CCOCC2)c1 (stereo unspecified),inactive,–
COc1ccc(NC(=O)c2ccc3nc(CCc4ccccc4)oc3c2)cc1,"inconclusive [inhibitor, single point]",–
CCCCC12CN3CC(C)(CN(C1)C3c1cc(Br)ccc1O)C2=O (stereo unspecified),"inconclusive [inhibitor, single point]",–
CC(C)(C)c1ccc(O)c(N=Cc2cc(Br)ccc2O)c1,"inconclusive [inhibitor, single point]",–
Cc1ccc(-c2nc3scc(CCNC(=O)c4cccc(Br)c4)n3n2)cc1,"inconclusive [inhibitor, single point]",–
COc1ccccc1C(=O)NNC(=O)C1CCCO1 (stereo unspecified),inactive,–

SMILES,Potency,"activity change, negative = growth inhibition"
S=c1[nH]c2cc(Cl)ccc2s1,inactive,–
CC1(C(=O)Nc2cccc(C(F)(F)F)c2)Cc2c(-c3ccccc3)ccnc2O1 (stereo unspecified),"inconclusive [inhibitor, single point]",–
COc1ccccc1N1CCN(C/C(C)=C/c2ccccc2)CC1,"inconclusive [inhibitor, single point]",–
COC(=O)[C@@H]1[C@@H](C)N(Cc2ccccc2)C(=O)N[C@H]1c1cccc(C(F)(F)F)c1,"inconclusive [inhibitor, single point]",–
CC(C)n1ncc2c(C(=O)Nc3ccc(CC#N)cc3)cc(C3CC3)nc21,"inconclusive [inhibitor, single point]",–
CCCCCc1ccc(C)cc1O,inactive,–
O=C(NCC(c1cccnc1)N1CCc2ccccc21)c1ccccc1Br (stereo unspecified),"inconclusive [inhibitor, single point]",–
Cc1ccc(OCCNC(=O)CNC(=O)c2ccc(C)cc2)cc1,inactive,–
Cc1ccc(S(=O)(=O)NCCC(=O)N2CCN(S(=O)(=O)c3ccccc3)CC2)cc1C,"inconclusive [inhibitor, single point]",–
COc1ccc(NC2=CC(=S)NC(C)(C)C2)cc1,"inconclusive [inhibitor, single point]",–
CCOc1ccccc1NC(=O)CSc1nc2ccccc2c2nc(CCn3cncc3C)nn12,"inconclusive [inhibitor, single point]",–
O=C(Nc1ccc(-c2noc(-c3cccs3)n2)cc1)c1cccnc1,"inconclusive [inhibitor, single point]",–
O=C(c1cc(C2CCCCN2C(=O)CCCc2ccccc2)on1)N1CCOCC1 (stereo unspecified),"inconclusive [inhibitor, single point]",–
COc1ccc(S(=O)(=O)Nc2ccc(-c3ccc4nnc(C)n4n3)cc2)c(OC)c1,"inconclusive [inhibitor, single point]",–
CCOC(=O)C1CCN(Cc2cc(C(C)(C)C)c(O)c(C(C)(C)C)c2)CC1,"inconclusive [inhibitor, single point]",–
COc1cc2c(-c3ccccc3C)nc3c(c(C)nn3-c3ccccc3)c2cc1OC,active: 23.1 µM,–
CN1CCN(c2ccc(NC(=O)c3ccc(-c4ccc(Cl)cc4)o3)cc2)CC1,active: 16.4 µM,–
COC(=O)c1cnc(Nc2nc(C(N)Cc3ccccc3)cs2)nc1C(F)(F)F (stereo unspecified),active: 23.1 µM,–
COc1ccc(NS(=O)(=O)c2ccc(-c3coc(C)n3)cc2)c(OC)c1,active: 23.1 µM,–
O=C(Cn1c(=O)n(Cc2ccco2)c(=O)c2cccnc21)Nc1ccccc1F,inactive,–
O=C(N1CCN(c2ccccc2)CC1)C(F)(F)C(F)F,–,inconclusive: -30.7% [inhibitor]
CCCN(CCC)C(=O)Cn1c(=O)n(-c2cccc(C(F)(F)F)c2)c(=O)c2c(C)c(C)sc21,active: 23.1 µM,–
CCOC(=O)c1sc(NC(=O)c2c(C)nn(Cc3ccccc3)c2C)cc1C,active: 16.4 µM,–
COc1ccc(-c2nc3c(Cl)cc(C(F)(F)F)cn3c2Cc2ccc(C)cc2)cc1OC,"inconclusive [inhibitor, single point]",–

SMILES,Potency,"activity change, negative = growth inhibition"
CCOC(=O)c1cc(CC)sc1NC(=O)c1cc(OCC)c(OCC)c(OCC)c1,"inconclusive [inhibitor, partial curve, poor fit]",–
CCOC(=O)N/N=C(\C)c1ccc(-n2cnnn2)cc1,inactive,–
O=C(NCc1ccco1)C1CCCN(c2ncnc3c2nc2n3CCCCC2)C1 (stereo unspecified),"inconclusive [inhibitor, single point]",–
CCc1ccc(NC(=O)CC2C(=O)N(c3cccc(C)c3)C(=O)N2Cc2cccs2)cc1 (stereo unspecified),active: 20.6 µM,–
Cc1ccc(SCC(=O)Nc2cc(C)on2)cc1,"inconclusive [inhibitor, single point]",–
CC(NS(=O)(=O)c1ccc(OCC(=O)Nc2cccc([N+](=O)[O-])c2)cc1)c1ccccc1 (stereo unspecified),"inconclusive [inhibitor, single point]",–
COc1ccc(C)cc1NC(=O)c1ccccc1NS(=O)(=O)c1cccc2cccnc12,inactive,–
CCCCCc1cc(=O)oc2c(C(CCN3CCCC(C)C3)c3ccc(OC)cc3)c(OC)cc(OC)c12 (stereo unspecified),"inconclusive [inhibitor, single point]",–
COCCCNC(=O)CN(c1cc(Cl)ccc1OC)S(C)(=O)=O,inactive,–
CCC/C=C/c1ccc(CN2C(C(C)C)C(=O)N(Cc3cn(CCC4OCCO4)nn3)CCS2(=O)=O)cc1 (stereo unspecified),"inconclusive [inhibitor, single point]",–
COC(=O)[C@]1(C)CCC[C@]2(C)c3ccc(C(C)C)cc3C(=O)CC12 (stereo partly specified),"inconclusive [inhibitor, single point]",–
CCCCn1c(=O)n(-c2ccc(Br)cc2F)c(=O)c2c3c(sc21)CN(C(C)=O)CC3,"inconclusive [inhibitor, single point]",–
COc1cc(CN2CCC(n3nccc3NC(=O)C3CCOC3)CC2)ccc1F (stereo unspecified),inactive,–
Cc1cc(/C=C2\SC(N)=NC2=O)c(C)n1-c1ccc(F)cc1,inactive,–
Cc1ccc(-c2cc(C(=O)N3CC(C)CC(C)C3)c3ccccc3n2)o1 (stereo unspecified),"inconclusive [inhibitor, single point]",–
Brc1ccc(-c2nc(-c3ccccc3)no2)o1,inactive,–
C/C(=C\C(=O)c1ccc(Br)cc1)NCc1ccc2c(c1)OCO2,"inconclusive [inhibitor, partial curve]",–
O=C(CCl)Nc1ccc(S(=O)(=O)Nc2nccs2)cc1,"inconclusive [inhibitor, partial curve]",–
CCOc1ccc(NC(=O)CSc2nnc(C)n2CCCOC)cc1,inactive,–
CC(=O)c1cc(NC(=O)c2cccc(C(F)(F)F)c2)c(=O)oc1/C=C/N(C)C,"inconclusive [inhibitor, single point]",–
CCCOc1ccc(N2C(=O)CC(N(C(=O)c3ccco3)c3ccc(OCCC)cc3)C2=O)cc1 (stereo unspecified),"inconclusive [inhibitor, single point]",–
COc1ccc(CNC(=O)Cn2c(SCC(=O)N(C)c3ccccc3)nc3ccccc32)cc1,"inconclusive [inhibitor, single point]",–
O=C1NC(c2ccc(-c3ccccc3[N+](=O)[O-])o2)C(C(=O)c2ccc(F)cc2)C(O)(C(F)(F)F)N1 (stereo unspecified),"inconclusive [inhibitor, single point]",–
